Laboratory results as given in the supplement of paper PMC11417369.
The other results are listed elsewhere or left out.

tested on: PfAP2-HC AP2 domain (GST-tagged); test: gcPBM binding intensity (ln(normalized median fluorescence intensity)); higher = stronger DNA binding
Summary of the method: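 In this array assay, P. falciparum DNA-binding domains with a GST tag, expressed in E. coli, were applied for 1 h to primer-extended double-stranded 36-bp intergenic genomic probes and negative controls on an Agilent 4 × 180k array. Bound protein was visualised with Alexa488 anti-GST antibody at 488 nm. Binding intensity is the highest Masliner-normalised natural-log median intensity across replicate spots of either probe orientation.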

| Sequence | gcPBM binding intensity (ln) |
| --- | --- |
| AAATTAAGTATATATTGTACACATAATATGATTGTA [XGTACX_site3083] | 9.77 |
| TTATTTTCATATAGGTGTACATAAAAATATTCTTAT [XGTACX_site8861] | 9.59 |
| TATCATAAAAAATATACACACAAAGGATATATATAT [CACACA_site1571] | 9.79 |
| ATGTTCATTATATGCACACATATATATAAATGTAAT [CACACA_site2908] | 9.78 |
| CATACATACGGACACACACACATATATATATATATA [CACACA_site5598] | 10.4 |
| AAAAAAGAAAAAAGGACACACATAAATATACTCACG [CACACA_site2904] | 10.1 |
| ATAATGTTTCTTTCAACACACAAAAAATGAACACAT [CACACA_site1552] | 9.79 |
| AAAAAAAAAAAATAGACCTCCTAAGCAAAAGAAAAA [GTGCAC_negctrl_site634] | 9.81 |
| TATATAAGCGCATGCACACGCAAAGGTATATAAATA [CACACA_site622] | 10.1 |
| AATATAAATAAAAACACACACAATGGTACAGATATA [CACACA_site5930] | 10.3 |
| AATTTAAATTAGAATTGTACTAGAAAAGGAATATAT [XGTACX_site6162] | 9.72 |
| AATTATATAATCTTATAACATAATATAATAACATTT [CACACA_negctrl_site187] | 9.45 |
| ATAATTTTCCATATTTGTACATATTTTTTTCCCTTG [XGTACX_site8146] | 9.78 |
| TAATGACTGAAAAATTGTACATATGTATATATGTAT [XGTACX_site2415] | 9.7 |
| ATTCTATTATAATATTCACACACTAACGTAAATCAT [CACACA_site2750] | 9.85 |
| TATACATACATACATACACACACACCGATATATATA [CACACA_site7896] | 10.2 |
| TATTTATTTGTTTAAGGTACAGAACAAATTTTTATT [XGTACX_site7414] | 9.5 |
| AAATGTTCTTAAAAATGAATAATATATATATATATA [CACACA_negctrl_site796] | 9.41 |
| ATATTTATTATTATATGTACGTAACATCTTTATAAA [XGTACX_site7016] | 9.8 |
| CATAAATACATACATACACACATATATATATATATA [CACACA_site2106] | 9.85 |
| AAATGTTGAAAAATATGTACATATTATATATATTAT [XGTACX_site1165] | 9.74 |
| TAAGAAAGACAAAAAAAATGAAAAGAAAAAAAATGA [CACACA_negctrl_site1469] | 9.49 |

| Sequence | gcPBM binding intensity (ln) |
| --- | --- |
| ATTTAGAAAAAATATACACACAGCCTAAACATGCAT [CACACA_site4067] | 10.1 |
| AATATAAGCAAATACACACACACATATATATATATA [CACACA_site3805] | 10.7 |
| TTATCCTATACAAGGGAAAAATAAAATAAAATAAAT [TGCATGCA_negctrl_site272] | 9.46 |
| TAAAAAATATTATATACACACAGTATAAAAAAAAAT [CACACA_site4012] | 10 |
| ATTGATTATTTTCTAGTGCATAAAATAATTTTTTTT | 9.46 |
| AGTGTCATATAAAATTGTACTTTTTTTTTTTTCTTT [XGTACX_site5651] | 9.7 |
| ATATACATATTATAATGTACATATTTTAATAACCTT [XGTACX_site7617] | 9.67 |
| CAGACCTCTTTGTCATGTACATAAAAAAATAAAGAA [XGTACX_site7887] | 9.47 |
| TATTTCTTTTGGTTGGTGCATAAAATAATACAATAT [GTGCAC_site9916] | 9.64 |
| TATAAACAGACGAAAACACACATATGTAAATATATA [CACACA_site4428] | 9.89 |
| TACAAAAAGTTATACACACACGTACCTATAAATAGA [CACACA_site6571] | 10 |
| ATAAAAATAATATCATGTACATATGTGTATTGTATT [XGTACX_site1768] | 9.73 |
| TATAAGAAAATAATGTGTACTAAATAATAAATGCAT [XGTACX_site1204] | 9.76 |
| CCACATGAGATGATTACACACATATAAATATTTACA [CACACA_site6222] | 9.69 |
| ATATATATTTAATTTACACACAAAAAAAATTGTTGG [CACACA_site961] | 9.64 |
| ACTTTTTAATAATAATAATTATATATATATATATAT [TGCATGCA_negctrl_site459] | 9.66 |
| ATAACATACATAACAACACACAATATTTATATGTAT [CACACA_site210] | 10.2 |
| GAATGTATTCATAAATGTACTTATAATATTATAATA [XGTACX_site3466] | 9.47 |
| ATAAATGAAGATAAATTAAAAAAAAAAAAAAAAAAA [CACACA_negctrl_site992] | 8.7 |
| AATACATAAATATTTTGTACATATTATATAAAATAT [XGTACX_site1627] | 9.65 |
| CGACTTTTAAAATATACACACATATATATATATATA [CACACA_site825] | 9.74 |
| ATGAAAAAAAAAAAAAAAAAAAAAAAAAAAAAAAAA [CACACA_negctrl_site1405] | 8.84 |

| Sequence | gcPBM binding intensity (ln) |
| --- | --- |
| CTTGTACCTAGAAATACACACAATTATATAACTTAT [CACACA_site2838] | 9.76 |
| ATTTGCTTTTATTTTACACACTTGCTCCTGTTGTAC [CACACA_site1088] | 10.6 |
| AAAAAAAAATATATTGCACACCTCTCAATAAAAAAA [CACACA_site172] | 9.8 |
| TCCATTCTATTTTTTACACACGTATGTAAATATTAT [CACACA_site2686] | 9.86 |
| CGCAACACTATTTGGGTGCTCTTCAAAAAAAAAAAA [GTGCAC_site9598] | 9.01 |
| TTAAATACTTTTCGAAGTACATTATATATATAATAT [XGTACX_site7530] | 9.43 |
| AGAATATATATAATAGTGCAATGTACAATGAACAAA [GTGCAC_site9577] | 9.86 |
| ATTCTAATTACATATACACACAAAGGTTCATAACAA [CACACA_site3076] | 9.67 |
| TATATAAATGTATACACACACATATAAATATAAATA [CACACA_site6751] | 10 |
| TAACTACTAGAAAAAACACACAAAAAGTAAATATAT [CACACA_site2740] | 9.87 |
| TTCCCATGTAATATTAAACACACACCCATATAACAC [CACACA_site7905] | 10.5 |
| TAAAATATAAGACACACACACATATATTTATATATC [CACACA_site6248] | 10.5 |
| TACCAAATCACCCCTTGTACCCATTTTAAAATTTTC [XGTACX_site396] | 9.86 |
| TGTTTAACATTTATATGTACATATATTCACATATTA [XGTACX_site342] | 9.81 |
| ATAAACAGATCATATACATGCATATATGTAGAATAA [TGCATGCA_site157] | 9.82 |
| ATATAAAAAAGAGGGAGTACTTGTAACAAAATAATA [XGTACX_site8679] | 9.83 |
| GTACAGATGTAGTATGCATGTAATTATATATAAATT [TGCATGCA_site292] | 9.76 |
| ACGTAGTAGGTATTATGTACATATTTATAAGTATAA [XGTACX_site7336] | 9.72 |
| ACATGTTCATAATTTTGTACATATTTTTATGAACAT [XGTACX_site3976] | 9.65 |
| ACATACGAAAATTGGAAGGATAGATAAAAAGAAAAT [CACACA_negctrl_site51] | 9.66 |
| AAAAAGCAGGATTATACACACAAATATTTATATGTT [CACACA_site6634] | 10 |
| GCGTAGTTCGGAAGGGTGCTTTTTTGTTAATAAAAA [GTGCAC_site9592] | 9.42 |

| Sequence | gcPBM binding intensity (ln) |
| --- | --- |
| TCTAAACAAATTAATAAAATAAGTATTCAAAATTAT [CACACA_negctrl_site731] | 9.29 |
| GTAAAATTTCGGATTTGTACACATGGCTATGAAAAA [XGTACX_site939] | 9.66 |
| AATATTTATTTTTTTGCACACATATTTTACATTTTA [CACACA_site3182] | 10.4 |
| TTATGTTATAAATACACACACAAAAGAAAAAAAAAA [CACACA_site7414] | 10 |
| TCCCATAATATTAGTAGTACTATTAATATTTTCAGG [XGTACX_site4925] | 9.35 |
| ATTTCTTTTTTTTCTTGTACACATATTAAATTTATG [XGTACX_site734] | 10 |
| TTCTCTATAAATGCTGCACACACATTTAATTATTTA [CACACA_site8828] | 10 |
| TTACAAATATTATAAAGTACAAACCAGTAGATTTTG [XGTACX_site2272] | 9.63 |
| TATTTTTTTTTTTTTTTTTTTACCTTTCCACTCAAA [CACACA_negctrl_site1454] | 9.21 |
| TTTTTTTTTTTTAAAAGTACATAGTAGTAATTATAG [XGTACX_site4232] | 9.33 |
| TCATTCTAAATATAAACACACATAAATATGTACATT [CACACA_site7555] | 9.76 |
| CATAAAAATGGATACACACACATAATATATATATAT [CACACA_site3619] | 10.2 |
| AAAAAAATTAATGTGTGTACTTAGATATAATGTTTA [XGTACX_site8862] | 9.84 |
| TAATTTTTTTTTTATTGTACTTAATATTTTTAATTT [XGTACX_site5929] | 9.61 |
| ATTATCAAGACATTGCGTACTTAAAAAAAAAAAAAT [XGTACX_site6347] | 9.4 |
| TTATTATTCATATATTCACACATTAAAATTTTTCAA [CACACA_site4243] | 9.64 |
| CATATATAATAATATTGTACATATATAATAATAATA [XGTACX_site3338] | 9.69 |
| ATTTCATACAGACACACACACAAACAAACATATATA [CACACA_site979] | 11.2 |
| GTGAAGGTTTATATGTGTACATATATGTATTATATA [XGTACX_site326] | 9.94 |
| ATTATATATACATATACACACATACGTACATACATA [CACACA_site9194] | 9.95 |
| TTTTTTTTTTTTAATGCACACAGTGAACTTTTACTT [CACACA_site3567] | 9.83 |
| GACATTTCTTGGGATACATGCATGTCCCAGAACAAA [TGCATGCA_site271] | 9.48 |
